Laboratory results: PubChem BioAssay AID1347120 (National Center for Advancing Translational Sciences (NCATS), 2019)
Screen size: about 390,000 compounds; about 930 (0.24%) were called active. This list was built around the results that the source calls inconclusive (neither active nor inactive); the mix of calls is not that of the screen. Calls come from the whole dose curve; as a rule, active = well fitted activation curve with a large enough effect; inconclusive = small, poorly fitted or top-dose-only effect; inactive = no such curve, though single readings can be large or run the other way. Potencies beside an inconclusive call are fits to weak or partial responses and may not hold up.

experiment: qHTS for Suppressors of FUS Proteinopathy: Primary screen using FUS-linked yeast assay; note: nearly all actives have a fitted effect of over 55% in size;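 for growth rescue (activation): plate controls were DMSO vehicle for no effect and reference control for full effect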; settings: S. cerevisiae FUS-expressing, OD600, 24 h; Potency: growth rescue; growth rescue (activation): at 76.6 µM (top of the series)
In short: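 Cultures pregrown in 2.5% raffinose medium are shifted to minimal medium containing 2% galactose to express toxic FUS. Compounds are tested at several concentrations. After 24hr at 30C, growth is quantified at 600 nm absorbance.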
Potency is the fitted concentration of half-maximal effect; tags give direction and shape of the fitted curve.

Row | SMILES | growth rescue (activation) | Potency
1 | O=C(O)CCCC(=O)Nc1ccc(Cl)c(Cl)c1 | inactive: 12.6% | –
2 | Nc1c(Cl)cc(C2=NCCn3nc4cc([N+](=O)[O-])ccc4c32)cc1Cl | – | inconclusive: 39.8 µM [activator, single point]
3 | C[C@H](CCC(=O)O)[C@H]1CC[C@H]2[C@@H]3CC[C@@H]4C[C@H](O)CC[C@]4(C)[C@H]3C[C@H](O)[C@]12C | – | inconclusive: 25.1 µM [activator, single point]
4 | COc1ccccc1-c1cc2nc(C)c(CCC(=O)NCc3cccc(Cl)c3)c(C)n2n1 | inactive: 10.5% | –
5 | COc1ccc(N2CC(NC(=O)C3CC3)CC2=O)cc1OC (configuration not stated) | inactive: -17.1% | –
6 | Cc1[nH]nc(-c2ccc(O)c(C)c2O)c1-c1cnn(-c2ccccc2)c1 | – | inconclusive: 35.5 µM [activator, single point]
7 | CCOc1ccc(Br)cc1C1C(C(=O)OC)=C(N)Oc2cc(N(C)C)ccc21 (configuration not stated) | – | inconclusive: 35.5 µM [activator, partial curve, poor fit]
8 | CCN(CC)S(=O)(=O)c1ccc2c(c1)c(=O)c(C(=O)N1CCN(c3cccc(C)c3)C(C)C1)cn2C (configuration not stated) | – | inconclusive: 11.2 µM [activator, partial curve, poor fit]
9 | CCNC(=O)/C(C#N)=C/c1c(N2CCN(c3ccc(OC)cc3)CC2)nc2c(C)cccn2c1=O | inactive: 44.9% | –
10 | O=C(c1ccccc1)N1N=C(C(F)(F)F)CC1(O)c1ccccc1O (configuration not stated) | – | inconclusive: 3.55 µM [activator, full curve, poor fit]
11 | O=C(Nc1nccs1)c1ccc(COc2ccc(F)cc2)o1 | – | inconclusive: 50.1 µM [activator, single point]
12 | COc1ccccc1-c1cnn2c(NCCc3ccccc3)cc(C)nc12 | inactive: 14.7% | –
13 | Cc1ccc(-c2cc(C(=O)N/N=C/c3ccoc3)c3ccccc3n2)cc1 | – | inconclusive: 10 µM [activator, full curve, poor fit]
14 | CCOC(=O)CNc1c(-c2ccc(F)cc2)nc2cnccn12 | inactive: 19.6% | –
15 | CCn1c(CCNC(=O)c2ccc(OC)cc2)nnc1SCc1ccc(Cl)cc1Cl | – | inconclusive: 11.2 µM [activator, partial curve, poor fit]
16 | COc1ccc(-c2ccc(C(=O)Nc3ccc(OC)nc3)c3occc23)c(C)c1 | – | inconclusive: 28.2 µM [activator, single point]
17 | CC(Sc1nc(NCc2ccccc2)nc(N(C)C)n1)C(=O)Nc1ccccc1 (configuration not stated) | – | inconclusive: 28.2 µM [activator, partial curve, poor fit]
18 | CN(C)C(CN1C(=O)C2CC=CCC2C1=O)c1cn(C)c2ccccc12 (configuration not stated) | – | inconclusive: 50.1 µM [activator, single point]
19 | COc1ccc(CC(=O)OCC(=O)c2ccc(OC)cc2)cc1 | inactive: 13.8% | –
20 | CCOCCCN(C(=O)Nc1ccc(CC)cc1)C1CCN(C(C)=O)CC1 | inactive: 7.99% | –
21 | Cc1c(N=C/C=C/c2ccccc2)cnn1C | inactive: -17.2% | –
22 | COc1ccc(-c2cc3nc(-c4ccccc4)cc(N4CCN(C(=O)c5ccccc5)CC4)n3n2)cc1 | – | inconclusive: 35.5 µM [activator, single point]
23 | COCCCN1CCc2nc(SCC(=O)Nc3ccc(C)c(Cl)c3)[nH]c(=O)c2C1 | inactive: 35% | –

Row | SMILES | growth rescue (activation) | Potency
24 | COc1ccc(-n2c(SCc3nc(-c4ccc(C)cc4)no3)nnc2-c2ccncc2)cc1 | – | inconclusive: 6.31 µM [activator, partial curve, poor fit]
25 | O=C(c1cc(-c2ccc(Br)cc2)n[nH]1)N1CCN(C(=O)c2ccccc2Br)CC1 | – | inconclusive: 44.7 µM [activator, single point]
26 | Cc1cc(=O)nc2c3ccccc3n(CC(=O)Nc3ccccc3Br)n12 | – | inconclusive: 4.47 µM [activator, full curve]
27 | O=C(O)c1ccc(COc2ccc3ccccc3c2/C=C2/NC(=O)N(c3ccccc3)C2=O)cc1 | – | active: 35.5 µM
28 | Cc1ccc(-c2nnn(CC(=O)N(Cc3ccco3)C(C(=O)NC(C)(C)C)c3cccs3)n2)o1 (configuration not stated) | – | inconclusive: 35.5 µM [activator, partial curve, poor fit]
29 | COc1cccc(/C=C/C(=O)OCC(=O)Nc2cccc(S(=O)(=O)N(C)C)c2)c1 | – | inconclusive: 35.5 µM [activator, single point]
30 | Cc1ccc(-c2nc3cc(C)c(Br)c(C)n3c2CC2CCCCC2)cc1 | inactive: -13.2% | –
31 | CC1(C)O[C@@H]2C[C@H]3[C@@H]4CCC5=CC(=O)C=C[C@]5(C)[C@@]4(F)[C@@H](O)C[C@]3(C)[C@]2(C(=O)CO)O1 | inactive: -18.5% | –
32 | O=C1C=C(Nc2ccc(Cl)cc2)C(=O)N1c1ccc(Cl)cc1 | – | inconclusive: 14.1 µM [activator, partial curve]
33 | Cc1cc(C)cc(OCC(=O)NCC2CCCO2)c1 (configuration not stated) | inconclusive: -48.4% [activator] | –
34 | CCN(CC)S(=O)(=O)c1ccc(O)c(C(=O)OCC(=O)N2CCCc3ccccc32)c1 | – | inconclusive: 22.4 µM [activator, partial curve]
35 | Cc1cccc(-c2c3c(=O)n(C)c(=O)n(C)c3cn2C(C)C)c1 | – | inconclusive: 10 µM [activator, full curve, poor fit]
36 | CS(=O)(=O)c1ccccc1-c1csc(N2CCC(C(N)=O)CC2)n1 | – | inconclusive: 28.2 µM [activator, single point]
37 | Cc1c(C(=O)Nc2c(F)cccc2F)sc2ncnc(N3CCN(c4ccccc4)CC3)c12 | – | inconclusive: 28.2 µM [activator, single point]
38 | COc1ccc(S(=O)(=O)NCCc2ccccc2)cc1OC | inactive: -2.83% | –
39 | Cc1ccc(NC(=O)COc2ccc3oc4c(c3c2)CCCC4)c(C)c1 | inactive: -13.2% | –
40 | CCCCCOc1ccc(/C=N/NC(=O)CSc2nnc(-c3ccc(OC)cc3)n2-c2ccc(C)cc2)cc1 | inactive: 13% | –
41 | COc1ccc(CCN(C)C(=O)CN2C(=O)NC3(CCCc4ccccc43)C2=O)cc1OC (configuration not stated) | inactive: 1.83% | –
42 | Cc1ccc(C)n1C(CC(=O)O)c1ccc(C#N)cc1 (configuration not stated) | – | active: 31.6 µM
43 | CC(c1ccon1)N(C)C(=O)c1ccc2nc(Cc3cccc(Cl)c3)oc2c1 (configuration not stated) | – | inconclusive: 25.1 µM [activator, partial curve, poor fit]
44 | COC(=O)C[C@H]1CC[C@@H]2[C@@H](COc3ccc(NC(=O)c4ccccc4)cc3C(=O)N2C)O1 | inactive: 10.2% | –
45 | Cc1noc2ncnc(Nc3ccc(F)cc3)c12 | inactive: -18.9% | –
46 | COC(=O)[C@]12CCCCC=C1N(CCC1=CCCCC1)C(=O)[C@H](CC(=O)NCc1cccs1)C2 | – | inconclusive: 50.1 µM [activator, single point]

Row | SMILES | growth rescue (activation) | Potency
47 | CC1CCc2[nH]c3ccc(C(=O)N(C)CC(=O)Nc4ccc(F)cc4)cc3c2C1 (configuration not stated) | – | inconclusive: 35.5 µM [activator, single point]
48 | CCOc1cc(-c2nc(-c3ccccc3)c(-c3cc([N+](=O)[O-])ccc3C)[nH]2)ccc1O | – | inconclusive: 35.5 µM [activator, partial curve, poor fit]
49 | O=C(c1cccc(S(=O)(=O)N2CCN(c3ccc(F)cc3)CC2)c1)N1CCCC1 | – | inconclusive: 15.8 µM [activator, partial curve, poor fit]
50 | COc1cccc(C(=O)NCc2ccc3c(c2)cc(C)n3C)c1 | – | inconclusive: 31.6 µM [activator, single point]
51 | O=C(CSc1ncn(-c2ccccc2)n1)Nc1nncs1 | inactive: -15.4% | –
52 | CCOC(=O)[C@@]12CCC3=C1N(CCC3)C(=O)[C@H](CC(=O)NCc1ccc(OC)c(OC)c1)C2 | inactive: 3.5% | –
53 | COc1ccc(CCNC(=O)C2CC(=O)N(c3ccc(C)cc3)C2)cc1OC (configuration not stated) | – | inconclusive: 0.891 µM [activator, partial curve, poor fit]
54 | O=C(O)c1ccc(-n2cccc2/C=N\NC(=O)c2cc3cc(Br)ccc3o2)cc1 | inactive: -4.29% | –
55 | Cn1ncc2c(NCc3cccc(Cl)c3)ncnc21 | inactive: -8.11% | –
56 | O=C(Nc1nc(-c2cccc([N+](=O)[O-])c2)cs1)C(c1ccccc1)c1ccccc1 | – | inconclusive: 25.1 µM [activator, partial curve, poor fit]
57 | COc1ccc(Br)cc1Cn1nnc(C(=O)Nc2ccc3c(c2)OCCO3)c1N | inactive: 13.2% | –
58 | Cc1ccc2c(=O)cc(C(=O)Nc3sc4c(c3C(=O)NCc3ccco3)CCCC4)oc2c1C | inactive: -9.91% | –
59 | O=C(O)c1ccc(N/N=C/c2ccc(-c3cc(Cl)ccc3Cl)o2)cc1 | – | inconclusive: 8.91 µM [activator, partial curve, poor fit]
60 | Cc1ccc2c(CNCc3cccs3)c(C(=O)O)n(Cc3ccc(F)cc3)c2c1 | – | inconclusive: 50.1 µM [activator, single point]
61 | N#C/C(=C/c1ccc(N2CCCCC2)cc1)c1cccc(F)c1 | inactive: -0.243% | –
62 | CC(C)(C)C(=O)N1c2ccccc2CCc2ccccc21 | – | inconclusive: 56.2 µM [activator, partial curve, poor fit]
63 | CCOC(=O)c1c(NC(=O)C(C)S(=O)(=O)c2cn(CC)c3ccccc23)sc2c1CCCC2 (configuration not stated) | – | inconclusive: 15.8 µM [activator, partial curve, poor fit]
64 | N=c1c2c(ccn1Cc1ccccc1)Oc1ccc3ccccc3c1C2c1ccccc1 (configuration not stated) | – | active: 14.1 µM
65 | O=c1[nH]c(SCc2nc3ccccc3c(=O)n2-c2ccccc2C(F)(F)F)nc2ccccc12 | – | inconclusive: 35.5 µM [activator, partial curve, poor fit]
66 | C=CCC[C@H](Cc1ccc(F)cc1)C(=O)OC[C@H]1CCCN1C(=O)[C@@H](CC=C)CC(=O)NCCO | inactive: 35.9% | –
67 | COc1ccc(N(CC(=O)N2CCN(c3ccc(Cl)cc3)CC2)S(=O)(=O)c2c(C)noc2C)cc1 | – | inconclusive: 14.1 µM [activator, partial curve]
